# Measurements published in the supplement of paper PMC3334620.
# Whole data set: some 33,000 sequences, median “E-score (-0.5 to 0.5)” near -0.012, cut for the highest 2% near 0.29. The list shows a part of the results.
# Target: T1, Ybr033w (UniProt P38073)
# T1 sequence: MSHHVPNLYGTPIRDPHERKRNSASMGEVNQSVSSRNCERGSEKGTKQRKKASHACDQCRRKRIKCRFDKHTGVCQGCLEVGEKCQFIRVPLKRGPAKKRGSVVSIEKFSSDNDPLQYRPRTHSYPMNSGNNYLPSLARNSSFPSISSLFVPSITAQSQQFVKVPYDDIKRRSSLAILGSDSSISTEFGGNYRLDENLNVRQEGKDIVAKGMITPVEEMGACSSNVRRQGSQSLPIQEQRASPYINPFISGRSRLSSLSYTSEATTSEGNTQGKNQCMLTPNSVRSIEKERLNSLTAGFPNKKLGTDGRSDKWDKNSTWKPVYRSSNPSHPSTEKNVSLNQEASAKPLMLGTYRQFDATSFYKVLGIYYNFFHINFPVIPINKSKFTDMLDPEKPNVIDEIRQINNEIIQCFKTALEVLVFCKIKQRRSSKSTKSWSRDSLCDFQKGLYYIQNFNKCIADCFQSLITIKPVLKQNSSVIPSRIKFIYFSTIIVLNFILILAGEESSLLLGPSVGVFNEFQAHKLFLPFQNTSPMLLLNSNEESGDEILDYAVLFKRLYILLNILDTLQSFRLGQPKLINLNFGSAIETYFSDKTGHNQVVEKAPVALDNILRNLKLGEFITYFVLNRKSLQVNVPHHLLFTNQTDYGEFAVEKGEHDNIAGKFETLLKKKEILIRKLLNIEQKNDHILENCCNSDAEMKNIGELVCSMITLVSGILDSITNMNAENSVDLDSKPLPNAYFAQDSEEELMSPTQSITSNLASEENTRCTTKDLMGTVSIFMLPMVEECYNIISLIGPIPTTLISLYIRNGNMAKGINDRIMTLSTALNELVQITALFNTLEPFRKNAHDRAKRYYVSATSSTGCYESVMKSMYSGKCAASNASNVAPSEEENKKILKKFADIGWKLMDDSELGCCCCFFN
# Assay: PBM E-score (8-mer binding enrichment) (E-score (-0.5 to 0.5)); higher = stronger / more preferred TF binding; most listed sequences are background and not binding sites
# Settings: protein concentration: 200 nM; construct: GST-full length
# In short: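 For each ungapped eight-base word taken together with its reverse complement, the Universal PBM Analysis Suite assigned an E-score. Binding data came from GST-tagged yeast transcription factors, applied at about 100-200 nM, on universal all-10-mer Agilent arrays made double-stranded by primer extension. Fluorescent anti-GST marked bound protein, and scans were normalised with masliner.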
row,Sequence,PBM E-score
1,TATTTCAA,0.338
2,CCTTAGGA,-0.0302
3,AGGGGTCC,-0.343
4,ACCGTTTG,0.0292
5,CGCCCAGA,-0.174
6,TGAGCGCA,-0.0394
7,AGGGCCCC,-0.36
8,CCTGGCGA,-0.0733
9,TACCGTCA,-0.0481
10,AAAGTTGC,0.0307
11,TAGCTCAA,0.175
12,CATTGGGC,-0.222
13,GACTTCAC,-0.0135
14,ATCCTTCA,0.146
15,GCGAGCGC,-0.154
16,GCACTCAC,-0.0579
17,GGCTTAAA,0.0524
18,CCACGTTC,-0.138
19,ATAACAGC,0.11
20,TGAAGCCA,0.0247
21,AAGCTGGT,-0.0671
22,CTCTCAAA,0.162
23,GGTAAGGA,0.00938
24,ATTGCTTG,0.2
25,CGTCCACC,-0.2

row,Sequence,PBM E-score
1,AAAACAAT,0.192
2,AATAATAA,0.399
3,GTCCAAGA,-0.224
4,TCACGCCA,-0.081
5,AAGTACCA,0.0744
6,AGACTCCA,-0.095
7,TAGTTGAA,0.307
8,TATAGGCA,-0.031
9,AATTAAAT,0.276
10,CCATTTCC,-0.00462
11,CAGCCGAG,-0.145
12,GCGTTTTA,0.0531
13,CACGATAC,-0.172
14,CTGTCTCA,-0.14
15,AGGGCCAC,-0.19
16,AGTGCGGA,0.28
17,CCGGCTCC,-0.21
18,CAATATCC,0.253
19,GTTCGACA,0.0661
20,ACGTAATG,-0.0331
21,AGCTTTGG,-0.0527
22,AAACAGAT,0.148
23,ATCCCTGA,-0.0831
24,AGGGTCCC,-0.265
25,CCGAAAAG,0.127

row,Sequence,PBM E-score
1,GCGAAGCC,-0.268
2,GTGCCAAC,0.0403
3,ATGGGAGA,-0.126
4,CTGTTTCA,0.0573
5,TAAACTTA,0.166
6,AGGCGCGG,-0.246
7,GGAGAACC,-0.108
8,AAAATCGT,0.195
9,CAGAGCGC,-0.205
10,AGATCCAT,0.00666
11,CTCAGGAA,0.134
12,GATTAGGA,0.0215
13,TTAAGCAA,0.164
14,CTGAGACA,-0.194
15,AGTTTAAG,0.0764
16,ATCCAGTG,0.149
17,CCGCGTTA,-0.095
18,ACGTCGGG,-0.399
19,GCCGGACA,-0.103
20,CTCCTGGA,-0.122
21,GCGCTCGA,-0.181
22,TAATTCTA,0.288
23,AGCCCATA,0.0408
24,GACTGTGA,0.0158
25,AGCTCTTA,-0.114

row,Sequence,PBM E-score
1,GGCCGCCA,-0.319
2,CCATCTCC,-0.132
3,CTAGATGC,-0.132
4,AGGATTCC,-0.196
5,AGGAACCT,0.0186
6,ACTCGCTC,0.00902
7,ATAGGCAA,-0.023
8,ATGTTATA,0.151
9,CGTCGGAA,0.162
10,AGGCTTAA,-0.111
11,AAATGAAA,0.268
12,CGACTCGA,-0.0473
13,ATCTCCGC,-0.126
14,GGTATGTA,-0.00685
15,CAAGAACA,0.0281
16,ACCCATCT,-0.0859
17,CCACTTGC,-0.0925
18,CTCCGAAA,0.0352
19,ACGAGGGA,0.00094
20,CGCAAAGC,-0.128
21,GAGATGGA,-0.197
22,GAGAAACA,0.247
23,CGGAGGGA,-0.057
24,GCAGCGGC,-0.182
25,AAAGCCGC,-0.0549

row,Sequence,PBM E-score
1,ATCCCTAA,-0.195
2,CGGCCAAC,-0.188
3,GAGTGTGA,0.0244
4,CACACGTA,-0.138
5,CCGTTGCG,-0.192
6,ACGGTTAT,-0.0962
7,CAATGAGA,0.00572
8,ACCGTCCT,-0.0333
9,CCTTGGAG,-0.035
10,AGGTAGTG,-0.0879
11,AACGATTG,-0.00547
12,AAATTGGA,0.172
13,ACCAGGTA,-0.225
14,ATGTCGGA,0.0711
15,GAATTACA,0.208
16,GCGGGAAA,0.128
17,AGATCGAA,0.249
18,CTCTCGCC,-0.231
19,GGCTGAAA,0.13
20,AGTGGCCG,-0.271
21,CGTGACCC,-0.187
22,GTTTCTTA,0.127
23,CCCATCGC,-0.184
24,AGATAGTC,-0.0515
25,ATTCATCC,0.349

row,Sequence,PBM E-score
1,AAAAGGTT,0.0857
2,CAGTGATC,0.00421
3,CCCTGAGG,-0.23
4,CCATAATA,0.264
5,TCTAGAGA,-0.123
6,CGTATTAG,0.279
7,ACGCGCGG,-0.177
8,ACAATCGA,0.232
9,ACAAAGTG,0.204
10,TATACTGA,0.351
11,CTCATAGA,0.0395
12,AGATAATG,0.181
13,CGTTTGCC,0.0522
14,GCCATCGC,-0.189
15,ATGAGGAC,-0.0357
16,CACGCCGG,-0.165
17,TGAAAAAA,0.246
18,ATTATTAA,0.316
19,TGTGATAA,0.214
20,AAGTGCAA,0.044
21,CACATGGA,-0.137
22,TGATTCAA,0.172
23,CAACCGGG,-0.0573
24,TCGCCCAA,-0.0573
25,ATGAATAC,0.0848

row,Sequence,PBM E-score
1,GAATAAAA,0.207
2,CGTCGGTA,-0.265
3,AGTCACCC,0.0165
4,AAACATGG,0.0874
5,ATGCACAA,-0.00047
6,AGGGCAGC,-0.32
7,GTTGTAAA,0.137
8,ATATGATG,0.139
9,TCCTAAGA,-0.0263
10,GCTTGATA,0.185
11,ACCAGCGC,0.0467
12,GCATCCCC,-0.141
13,ACGTGTAG,-0.0472
14,ACCACGTG,-0.101
15,AACGGGAA,0.248
16,GCATACAA,0.165
17,ACGGCGAG,-0.202
18,GGACTCTA,-0.106
19,ATATCGGG,0.18
20,TCAAATGA,0.09
21,AATGAAGT,0.217
22,ATTAAGTC,0.184
